Measured values from PubChem BioAssay AID887 (National Center for Advancing Translational Sciences (NCATS), 2007).
Several values for one entry are separate records, joined by “and”; a condition that tells them apart may be missing. Equal entries are not always repeated. Among all 74,000 compounds or so, about 1,100 (1.5%) were called active. This list was built around the results that the source calls inconclusive (neither active nor inactive); the mix of calls is not that of the screen. Calls come from the whole dose curve; as a rule, active = well fitted inhibition curve with a large enough effect; inconclusive = small, poorly fitted or top-dose-only effect; inactive = no such curve, though single readings can be large or run the other way. No potency is given beside an inconclusive call; the fits are too rough.

Each molecule was assayed against Polyunsaturated fatty acid lipoxygenase ALOX15 (Homo sapiens) (UniProt P16050) (assay: qHTS Assay for Inhibitors of 15-hLO (15-human lipoxygenase)). Conditions: purified 15hLO-1, xylenol orange hydroperoxide absorbance; activity change, negative = inhibition: at 57.1 µM (top of the series) unless noted.
UniProt P16050, sequence (P16050 whole entry, looked up): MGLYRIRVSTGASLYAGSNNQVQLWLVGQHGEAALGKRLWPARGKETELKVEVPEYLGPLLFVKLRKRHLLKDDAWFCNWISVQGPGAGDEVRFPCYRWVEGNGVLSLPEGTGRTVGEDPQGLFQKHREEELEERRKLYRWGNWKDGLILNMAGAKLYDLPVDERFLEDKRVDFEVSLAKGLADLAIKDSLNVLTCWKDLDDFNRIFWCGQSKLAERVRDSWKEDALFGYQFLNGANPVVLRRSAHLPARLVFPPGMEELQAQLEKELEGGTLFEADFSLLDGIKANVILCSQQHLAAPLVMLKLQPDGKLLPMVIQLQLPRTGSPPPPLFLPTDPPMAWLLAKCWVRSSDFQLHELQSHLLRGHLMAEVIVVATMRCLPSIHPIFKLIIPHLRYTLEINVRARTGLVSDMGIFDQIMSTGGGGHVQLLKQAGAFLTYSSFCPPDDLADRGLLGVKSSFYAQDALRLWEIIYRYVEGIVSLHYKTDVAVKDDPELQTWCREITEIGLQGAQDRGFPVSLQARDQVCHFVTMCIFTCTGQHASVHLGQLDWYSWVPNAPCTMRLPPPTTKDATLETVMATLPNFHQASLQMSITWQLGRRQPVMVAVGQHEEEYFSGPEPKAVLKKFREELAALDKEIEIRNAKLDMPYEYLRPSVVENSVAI
In short: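 Hydroperoxide formed from arachidonic acid (50 uM) by purified human 15hLO-1 (40 nM) oxidizes ferrous iron, and the ferric-xylenol orange complex is read at 573 versus 405 nm. Compounds were preincubated 15 min; reaction ran 6 min at room temperature.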
% is set by controls: 0 for no effect and ±100 for the full control effect; potency is the fitted concentration of half-maximal effect; tags give direction and shape of the fitted curve.
Note: nearly all actives have a fitted effect of over 55% in size.

| SMILES | activity change, negative = inhibition | Potency |
| --- | --- | --- |
| CC1CN(C(=O)c2cccs2)CCN1C(=O)c1cccs1 (stereo unspecified) | inactive: 63.5% | – |
| Cc1cc(NC(=O)c2cc(-c3ccco3)on2)nn1Cc1ccc(Cl)cc1 | – | inconclusive [inhibitor, partial curve] |
| O=C1C=C(NCCc2cc(Br)c(O)c(Br)c2)C(=O)c2ncccc21 | – | inconclusive [inhibitor, partial curve] |
| Cc1noc(C)c1CSc1nc2ccccc2c(=O)n1-c1ccc(F)cc1F | – | inconclusive [inhibitor, partial curve] |
| O=C(NC12CC3CC(CC(C3)C1)C2)c1ccccc1O | inactive: -18.3% | – |
| N#C/C=C\Oc1ccc(Cl)cc1N | – | inconclusive [inhibitor, single point] |
| CCOC(=O)NC1(Nc2ccc(Cl)cn2)Oc2ccccc2O1 | – | active: 25.1 µM |
| CCN(CC(=O)NC(=O)NCc1ccco1)Cc1nc2ccccc2c(=O)[nH]1 | – | inconclusive [inhibitor, single point] |
| Cc1ccc2nc(SCc3nnc(-c4cccs4)o3)[nH]c2c1 | inactive: -7.78% | – |
| C=CCN1C(=O)/C(=C2/Sc3ccccc3N2CCCS(=O)(=O)O)SC1=S | – | inconclusive [inhibitor, partial curve] |
| CCCCC(=O)NC(Nc1nc(C2CC2)cs1)(C(=O)OCC)C(F)(F)F (stereo unspecified) | – | inconclusive [inhibitor, single point] |
| CCCS(=O)(=O)N1CCC(C(=O)NCCN2CCCC2)CC1 | – | inconclusive [inhibitor, single point] |
| O=C1c2ccccc2C(Nc2ccc3c(c2)OCO3)N1Cc1ccco1 (stereo unspecified) | – | inconclusive [inhibitor, partial curve] |
| CCCn1c(C)nc2c(NCC(C)(C)CN(C)C)nc(C)nc21 | inactive: 1.14% | – |
| CCCCCCSC1=C(C#N)C(c2ccc(C)o2)CC(=O)N1 (stereo unspecified) | – | active: 25.1 µM |
| Oc1cccc(/C=N/c2c(-c3ccco3)nc3ccccn23)c1 | – | inconclusive [inhibitor, partial curve] |
| CCCn1c(=O)c(C)cn2nc(N)nc12 | inactive: -9.58% [at 25.6 µM] | – |
| COCCCn1c(CCC(=O)O)ccc1-c1cccs1 | inactive: -19.6% | – |
| c1ccc2cc(C3=NCCN3)ncc2c1 | inactive: -19.8% [at 25.6 µM] | – |
| O=C(O)C1=CC(=C(c2ccc(O)c(C(=O)O)c2)c2ccc(O)c(C(=O)O)c2)C=CC1=O | – | active: 1 µM and active: 2.51 µM |
| COc1ccccc1N1CCN(S(=O)(=O)c2ccc3c4c(cccc24)C(=O)N3)CC1 | – | inconclusive [inhibitor, single point] |
| COCCNC(=O)c1ccc(Cc2nc3ccccc3[nH]2)cc1 | inactive: -0.948% | – |
| Cc1ccc2[nH]c(=O)c(C(c3nnnn3CC3CCCO3)N3CCOCC3)cc2c1 (stereo unspecified) | inactive: 15% | – |
| COc1ccc(C2CC(=O)c3cnc(NC(=O)c4ccccc4OC)nc3C2)c(OC)c1 (stereo unspecified) | inactive: -9.99% | – |
| COC(=O)/C=c1/sc2nc3ccccc3n2c1=O | – | inconclusive [inhibitor, full curve] |
| CCN1CCN(Cc2c(C)[nH]c3ccc(OC)cc3c2=O)CC1 | – | inconclusive [inhibitor, full curve] |

| SMILES | activity change, negative = inhibition | Potency |
| --- | --- | --- |
| O=C(c1ccc2ccccc2c1)N1CCN(c2ccc(O)cc2)CC1 | – | active: 3.16 µM |
| CC(C)(C)OC(=O)N1CC=C2C(C#N)=C(N)C(C#N)(C#N)C(c3cccs3)C2C1 (stereo unspecified) | – | inconclusive [inhibitor, full curve] |
| CCOC(=O)c1sc(N)c(C(=O)Nc2ccc(C)cc2C)c1C | – | inconclusive [inhibitor, full curve] |
| OC(COc1ccc(C2C=CCC2)cc1)CN1CCCCC1 (stereo unspecified) | – | inconclusive [inhibitor, single point] |
| Cc1nc(NC2=NCN(CC3CCCO3)CN2)nc2ccccc12 (stereo unspecified) | – | inconclusive [inhibitor, single point] |
| FC(F)(F)c1ccccc1-c1cc(NCc2cccnc2)ncn1 | – | inconclusive [inhibitor, partial curve] |
| N#Cc1cc2c([nH]c1=S)CCCCCC2 | – | inconclusive [inhibitor, partial curve] |
| CC(C)=CCc1c2c(c3occ(-c4ccc(O)c(O)c4)c(=O)c3c1O)C=CC(C)(C)O2 | – | active: 3.98 µM |
| COc1ccc(-c2[nH]ncc2-c2cnn(-c3ccccc3)c2)c(O)c1 | – | inconclusive [inhibitor, single point] |
| COC(=O)CC1C(C)(C)C(=O)C2CC3=C4CC(=O)OC(c5ccoc5)[C@]4(C)CCC3[C@@]1(C)C2=O (stereo partly specified) | inactive: 5.85% | – |
| c1c2c(cc3sc(N4CCCCC4)nc13)OCO2 | – | inconclusive [inhibitor, partial curve] |
| CC1=CC(C)(C)N2C(=O)C3(N=C(N)NC(Nc4ccccc4)=N3)c3cc(C)cc1c32 (stereo unspecified) | – | active: 25.1 µM |
| COc1ccccc1CCn1c(=O)c(-c2cc(F)cc(F)c2)nc2cncnc21 | – | inconclusive [inhibitor, full curve, poor fit] |
| C=CC1=C(C)C2=Cc3c(C=C)c(C)c4[n]3[Sn+2][n]3c(c(C)c(CCC(=O)O)c3=CC3=NC(=C4)C(C)=C3CCC(=O)O)=CC1=N2 | – | inconclusive [inhibitor, single point] |
| COc1ccccc1N1CCN(Cc2ccc(OC)c3ccccc23)CC1 | – | inconclusive [inhibitor, single point] |
| Cc1cc(C(=O)c2cccs2)c(N)s1 | – | inconclusive [inhibitor, partial curve] |
| CN(C)c1ccc(-c2cncnc2NCc2ccccc2)cc1 | inactive: 7.65% | – |
| Cc1ccc(CNC2=NCCCCC2)n1C | – | active: 20 µM |
| N#Cc1ccccc1NC(=O)c1ccc(-c2ccccc2Cl)o1 | – | inconclusive [inhibitor, full curve, poor fit] |
| C[C@@H](C(=O)O)c1ccc(C(=O)c2cccs2)cc1 | inactive: 4.93% [at 25.6 µM] | – |
| Cn1c(=O)n(CCc2ccccc2)c(=O)c2c1nc1n2CCCN1Cc1ccccc1 | – | inconclusive [inhibitor, single point] |
| CCCCn1c(NC(=O)c2ccccc2)c(C#N)c2nc3ccccc3nc21 | – | inconclusive [inhibitor, partial curve] |
| O=C(C1CCCN(S(=O)(=O)c2ccc(Cl)cc2)C1)N(Cc1cccs1)C1CC1 (stereo unspecified) | – | inconclusive [inhibitor, single point] |
| CCc1cc(-c2[nH]ncc2-c2ccc3c(c2)OCO3)c(O)cc1O | – | active: 25.1 µM |
| Cc1nc2scc(-c3cccs3)c2c(=O)n1-n1cccc1 | – | inconclusive [inhibitor, partial curve] |
| COC(=O)c1cc(NCc2cccs2)ccc1N1CCOCC1 | – | active: 20 µM |

| SMILES | activity change, negative = inhibition | Potency |
| --- | --- | --- |
| Cc1cc2c(c(=O)o1)C1(C(=O)N(C)c3ccccc31)C(C#N)=C(N)O2 (stereo unspecified) | – | inconclusive [inhibitor, single point] |
| COc1ccccc1NC(=O)N1CCN(c2cccc(C(F)(F)F)c2)CC1 | – | active: 39.8 µM |
| COc1ccccc1N1CCN(C(=O)c2ccc3nc(-c4ccco4)c(-c4ccco4)nc3c2)CC1 | – | active: 20 µM |
| Cc1[nH]c2ccccc2c1C(=O)CN1CCCCC1CCO (stereo unspecified) | – | inconclusive [inhibitor, single point] |
| COc1ccc(C(=O)NCCCn2ccnc2)cc1 | inactive: 6.94% | – |
| CN(C)Cc1ccccc1-c1cc(-n2ccnc2)ncn1 | – | active: 12.6 µM |
| O=C(O)CCC(=O)N1CCN(c2cccc(Cl)c2)CC1 | inactive: 8.98% | – |
| CCOCCCn1c(=NC(=O)c2cccnc2)c(C(=O)OCC)cc2c(=O)n3ccccc3nc21 | inactive: -14.4% | – |
| Cc1nc(Nc2ccccc2)c2nc(-c3ccccc3)n(CCN3CCOCC3)c2n1 | – | active: 20 µM |
| C[N+](C)(C)c1ccc([C@H](N)C(=O)O)cc1 | inactive: 3.81% [at 11.4 µM] | – |
| CCSc1oc(-c2ccco2)nc1S(=O)(=O)c1ccc(F)cc1 | – | inconclusive [inhibitor, single point] |
| CCSc1nnc(NC(=O)c2cnccn2)s1 | inactive: 15.5% | – |
| Cc1nc(NC2CCCCC2)c2nc(-c3ccccc3)n(CCN(C)C)c2n1 | – | inconclusive [inhibitor, single point] |
| CC(=O)N(CC1CCCO1)c1nnc(-c2ccccn2)s1 (stereo unspecified) | – | inconclusive [inhibitor, full curve, poor fit] |
| CC(C)(C)c1cc(O)c(C(C)(C)C)cc1O | – | inconclusive [inhibitor, full curve, poor fit] |
| CC1=C(C(=O)OC(C)C)C(c2ccccc2Cl)CC(=O)N1 (stereo unspecified) | – | inconclusive [inhibitor, single point] |
| COC(=O)N1CCC2(CCCN(c3ncccn3)C2)CC1 | inactive: 1.89% | – |
| Cc1ccc2c(c1)N(CC(=O)c1cccc(Cl)c1)C(=O)C(C)O2 (stereo unspecified) | inactive: -13.5% | – |
| COc1ccc2c(c1)nc1n2CN(CC2CCCO2)CN1Cc1ccccc1 (stereo unspecified) | inactive: 5.85% | – |
| O=c1[nH]c(CN2CCc3ccccc32)nc2scc(-c3cccs3)c12 | – | inconclusive [inhibitor, partial curve] |
| O=C(Cn1nc(Cl)nc1Cl)c1cc2ccccc2oc1=O | – | inconclusive [inhibitor, single point] |
| Cc1ccc(Cn2nnc3c(=O)n(Cc4cccc(C)c4)cnc32)cc1 | – | inconclusive [inhibitor, partial curve] |
| CCNc1ncc2nc(-c3ccc(F)cc3)c(=O)n(CCC#N)c2n1 | – | inconclusive [inhibitor, partial curve] |
| O=C(Cc1cccs1)Nc1ccc(C(=O)O)cc1 | inactive: 9.79% | – |
